Measurements reported in PubChem BioAssay (NCI).
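How tested: cells in 96-well plates exposed to compound for 48 hours at five concentrations. Abbreviation: GI50, concentration required for 50% inhibition of growth. TGI denotes the concentration required for complete inhibition of growth.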

What follows are compounds tested on NCI-H322M lung (assay: DTP human tumour cell line panel, 48 h).

Row | Structure (SMILES) | TGI | GI50
1 | Oc1cc(O)c2ccc(-c3ccc(O)c(O)c3)[o+]c2c1 | > 100 µM | –
2 | Nc1ccccc1NC(=O)c1ccc(CNc2nccc(-c3cccnc3)n2)cc1 | > 100 µM | 1.92 µM
3 | CC1=NN(C(=O)c2ccccc2O)C(=O)/C1=C/c1cccc(O)c1 | > 100 µM | –
4 | N#CC(N)c1ccc(OCCCCCCCCCCOc2ccc(C(N)C#N)cc2)cc1 (stereo not drawn) | > 100 µM | –
5 | O=C(COc1ccc(/C=C2\COc3ccccc3C2=O)cc1)Nc1nccs1 | 28.2 µM | 13.7 µM
6 | c1cnn(C23C4C5C6C4C2C6C53)c1 (stereo not drawn) | > 100 µM | –
7 | COc1ccccc1NC(=O)C1=C(C)NC(C)=C(C(=O)Nc2ccccc2OC)C1C1=CC=COC1 | > 100 µM | –
8 | Cc1ccc(S(=O)(=O)c2ccc(NC(=O)SCCC(=O)O)cc2)cc1 | > 100 µM | –
9 | Cc1c(O)c2ccccc2oc1=O | > 100 µM | –
10 | CN(C)c1ccc(/C=C/C(=O)[O-])cc1.CN(C)c1ccc(/C=C/C(=O)[O-])cc1.[Cu+2] | > 100 µM | –
11 | CCOC(=O)C1SC(=Nc2cccc(Cl)c2C)N=C1C (stereo not drawn) | 99 µM | –
12 | Clc1ccc(Nc2nnc(CCCCCCCCc3nnc(Nc4ccc(Cl)cc4)o3)o2)cc1 | > 100 µM | –
13 | Nc1c(C(=O)c2ccc(-c3cccnc3)cc2)cnn1-c1ccc(F)cc1 | > 25 µM | > 16.8 µM
14 | COc1ccc(C(CCC(C)=O)C(=O)O)cc1OC (stereo not drawn) | > 100 µM | –
15 | c1ccc([CH2][Sn]([CH2]c2ccccc2)([O]c2cccc3cccnc23)[O]c2cccc3cccnc23)cc1 | 1.95 µM | 0.725 µM
16 | CC(C)N1CC2CN(Cc3ccccc3)CC(C1)C2=O | > 100 µM | –
17 | COc1cc(C(=O)/C=C/c2ccc(OCCSCCCCCCCCCCSCCOc3ccc(/C=C/C(=O)c4cc(OC)c(OC)c(OC)c4)cc3)cc2)cc(OC)c1OC | > 100 µM | –
18 | CCOC(=O)[C@@H](C)C[C@H](Cc1ccccc1)NC(=O)c1nc([C@@H](C[C@H](C(C)C)N(C)C(=O)[C@@H](NC(=O)[C@H]2CCCCN2C)C(C)C)OC(C)=O)sc1CCOCc1ccccc1 | 6.17 µM | 0.0534 µM
19 | O=[N+]([O-])c1ccc(C2CC(c3ccccc3Cl)=Nc3ccccc3S2)cc1 (stereo not drawn) | 61 µM | –

Row | Structure (SMILES) | TGI | GI50
20 | CCCCCC1CC=CC(=O)O1 (stereo not drawn) | 14.4 µM | –
21 | COC(=O)C1=Cc2cc(OC)c(OC)c(OC)c2[C@H](c2cc(OC)c(OC)c(OC)c2)C1C(=O)OC (stereo partly drawn) | > 100 µM | –
22 | O=P1(Oc2ccccc2)N=P(c2ccccc2)(c2ccccc2)C=C(c2ccc(Cl)cc2)N1 (stereo not drawn) | 26.4 µM | –
23 | NC1=NC2=c3ccccc3=C(c3cnccn3)C2(c2cnccn2)c2ccccc21 (stereo not drawn) | > 100 µM | –
24 | NC(=S)N/N=C/c1nccc2ccccc12 | 33 µM | –
25 | C[C@]12CCc3nc(Nc4cccc(O)c4)sc3C1=CC[C@@H]1[C@@H]2CC[C@]2(C)/C(=N\NC(N)=S)CC[C@@H]12 | > 100 µM | 4.64 µM
26 | C=CCC(N[C@@H](CO)c1ccccc1)c1cn(Cc2ccccc2Cl)c(=O)n(Cc2ccccc2Cl)c1=O (stereo partly drawn) | > 100 µM | > 100 µM
27 | Cc1ccc(S(=O)(=O)N2CCN(S(=O)(=O)c3ccc(C)cc3)CCN(S(=O)(=O)c3ccc(C)cc3)Cc3cc(C#N)c(C#N)cc3CN(S(=O)(=O)c3ccc(C)cc3)CC2)cc1 | > 100 µM | –
28 | O=C1C(Cl)=C(Sc2nnc3c4ccccc4c4ccccc4c3n2)C(=O)c2ccccc21 | 31.1 µM | –
29 | NC1=CC(=O)c2cccnc2C1=O | 24.6 µM | 12.2 µM
30 | O=c1cc(-c2ccccc2)oc2ccc(OC/C(=N/O)c3ccccc3)cc12 | 49.7 µM | 7.25 µM
31 | COC(=O)c1c(C)cccc1C1CN=NC12Cc1ccccc1C2=O (stereo not drawn) | > 100 µM | –
32 | CC(C)(C)c1cc(-c2cc(C(C)(C)C)[nH]n2)n[nH]1 | > 100 µM | –
33 | O=C(NC(Cl)(C(F)(F)F)C(F)(F)F)c1ccc(F)cc1 | > 100 µM | –
34 | c1ccc2c(CN3CCN(Cc4c[nH]c5ccccc45)CC3)c[nH]c2c1 | 45.1 µM | –
35 | CSC1=Nc2c(c(C)c(-c3ccccc3)n2CCCN2CCCCC2)C2=NC(=O)C[C@H](C)N12 | > 94.6 µM | 9.2 µM
36 | Cc1sc2[nH]c(=O)oc(=O)c2c1C | > 100 µM | –
37 | O=C1CC[C@H](N2C(=O)c3cccc4c(Cc5ccc(CN6CCOCC6)cc5)ccc2c34)C(=O)N1 | > 100 µM | > 100 µM
